# Experimental data taken from the supplement of paper PMC9135407.
# Where “and” joins values, the source holds several entries; their conditions need not be identical. Identical values can stand only once. Counter-ions that a name gives are not always drawn. Out of some 5,800 compounds screened, about 620 (11%) showed activity.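 Rule for the calls: active = score above a cut-off or among the top three wells of a plate; in these data no inactive exceeds 0.85.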 This is a selection; strong and weak results do not stand in their true shares.
# System: primary human hepatic stellate cells (donor 1)
# Experiment: scaled lipid accumulation score (0 = DMSO-like, 1 = nortriptyline-like); higher = stronger HSC inactivation (lipid re-accumulation), active = hit call of the paper
# Details: 48 h
# [1] = library stock concentration: 3.33 mM
# [2] = library stock concentration: 10 mM
# [3] = library stock concentration: 80 uM
# [4] = library stock concentration: 400 uM
# [5] = library stock concentration: 2 mM
# [6] = library stock concentration: 1 mM
smiles,measurement,setting,value
C[C@]12CCC(=O)C=C1[C@@H]1C[C@@H]1[C@H]1[C@@H]3[C@@H]4C[C@@H]4[C@@]4(CCC(=O)O4)[C@@]3(C)CC[C@@H]12 [Drospirenone],scaled lipid accumulation score,[1],inactive: ≤ 0
same,scaled lipid accumulation score,[2],inactive: ≤ 0
C[C@]12CCC(=O)C=C1[C@@H]1C[C@@H]1[C@H]1[C@@H]3[C@@H]4C[C@@H]4[C@@]4(CCC(=O)O4)[C@@]3(C)CC[C@@H]12,scaled lipid accumulation score,[2],inactive: ≤ 0
Nc1cc(N2CCCCC2)nc(N)[n+]1[O-] [Minoxidil],scaled lipid accumulation score,,inactive: 0.015
same,scaled lipid accumulation score,library stock concentration: 9.6 mM,inactive: ≤ -0.006 and inactive: ≤ -0.001
same,scaled lipid accumulation score,[2],inactive: ≤ 0
"Nc1ncnc2c1ncn2[C@@H]1O[C@H](COP(=O)(O)OP(=O)(O)OP(=O)(O)OP(=O)(O)OC[C@@H]2O[C@H](n3cnc4c(N)ncnc43)C(O)[C@@H]2O)[C@H](O)C1O (stereo partly specified) [P1,P4-Di(adenosine-5')tetraphosphate triammonium]",scaled lipid accumulation score,[2],inactive: ≤ -0.07
CC1CCN=C(N)S1 (stereo unspecified) [AMT hydrochloride],scaled lipid accumulation score,[2],inactive: 0.018
CC1CCN=C(N)S1 (stereo unspecified),scaled lipid accumulation score,[2],inactive: ≤ 0
OC1CCC(Nc2ncc3nc(Nc4c(F)cc(F)cc4F)n([C@@H]4CCOC4)c3n2)CC1 (stereo partly specified),scaled lipid accumulation score,[3],inactive: ≤ 0
same,scaled lipid accumulation score,[4],inactive: ≤ 0
same,scaled lipid accumulation score,[5],inactive: ≤ 0
same,scaled lipid accumulation score,[2],inactive: ≤ 0
CCCCCCCCCCCCCCCC(=O)O [Palmitic Acid],scaled lipid accumulation score,[6],inactive: 0.033
N#C/C(=C\c1ccc(O)c(O)c1)C(=O)NCCCc1ccccc1,scaled lipid accumulation score,[2],inactive: ≤ 0
C/C(=C\C(=O)OCCCCCCCCC(=O)O)C[C@@H]1OC[C@H](C[C@@H]2O[C@H]2[C@@H](C)[C@H](C)O)[C@@H](O)[C@H]1O [Mupirocin],scaled lipid accumulation score,[1],inactive: ≤ 0
same,scaled lipid accumulation score,[2],inactive: ≤ -0.001 and inactive: ≤ 0
O=C(O)c1cc(N(Cc2ccccc2O)Cc2cc(O)ccc2O)ccc1O [Lavendustin A],scaled lipid accumulation score,library stock concentration: 13.1 mM,inactive: ≤ -0.007
CCc1cccc(CC)c1NC(=O)CN(CC(=O)O)CC(=O)O [Etifenin],scaled lipid accumulation score,,inactive: 0.119
C=CC(=O)Nc1cc2c(Nc3ccc(F)c(Cl)c3)ncnc2cc1OCCCN1CCOCC1,scaled lipid accumulation score,[2],active: 0.983
COc1ccc(C2=N[C@@H](c3ccc(Cl)cc3)[C@@H](c3ccc(Cl)cc3)N2C(=O)N2CCNC(=O)C2)c(OC(C)C)c1 [Nutlin-3],scaled lipid accumulation score,[1],inactive: 0.168
same,scaled lipid accumulation score,[2],inactive: 0.829
COc1ccc(C2=N[C@@H](c3ccc(Cl)cc3)[C@@H](c3ccc(Cl)cc3)N2C(=O)N2CCNC(=O)C2)c(OC(C)C)c1,scaled lipid accumulation score,[6],inactive: ≤ 0
"c1ccc(C2CN3CCSC3=N2)cc1 (single isomer, unassigned; (-)) [(-)-Tetramisole hydrochloride]",scaled lipid accumulation score,[2],inactive: ≤ -0.055
"c1ccc(C2CN3CCSC3=N2)cc1 (single isomer, unassigned; (-))",scaled lipid accumulation score,[2],inactive: ≤ 0
"c1ccc(C2CN3CCSC3=N2)cc1 (single isomer, unassigned; (-)) [Tetramisole hydrochloride]",scaled lipid accumulation score,,inactive: ≤ 0
same,scaled lipid accumulation score,[2],inactive: ≤ 0
CN/C(=N\CCSCc1nc[nH]c1C)NC#N [Cimetidine],scaled lipid accumulation score,,inactive: ≤ 0
same,scaled lipid accumulation score,[1],inactive: ≤ 0
same,scaled lipid accumulation score,library stock concentration: 7.9 mM,inactive: ≤ -0.006 and inactive: ≤ 0
same,scaled lipid accumulation score,[2],inactive: ≤ 0 and inactive: 0.018 and inactive: 0.008
NC(=O)c1ccc(I)c([N+](=O)[O-])c1 [Iniparib],scaled lipid accumulation score,[3],inactive: ≤ 0
same,scaled lipid accumulation score,[4],inactive: ≤ 0
same,scaled lipid accumulation score,[5],inactive: ≤ 0
same,scaled lipid accumulation score,[2],inactive: ≤ 0
NC(=O)c1ccc(I)c([N+](=O)[O-])c1 [Iniparib (BSI-201)],scaled lipid accumulation score,[1],inactive: 0.016
same,scaled lipid accumulation score,[2],inactive: ≤ 0
COC(=O)C[C@](O)(CCCC(C)(C)O)C(=O)O[C@@H]1C(OC)=C[C@]23CCCN2CCc2cc4c(cc2[C@H]13)OCO4 [Homoharringtonine],scaled lipid accumulation score,[2],active: 1.27
O=C(O)c1cc2cc(Cc3cccnc3)ccc2o1 [Furegrelate (sodium salt)],scaled lipid accumulation score,[6],inactive: ≤ 0
O=C(O)c1cc2cc(Cc3cccnc3)ccc2o1 [Furegrelate sodium],scaled lipid accumulation score,[2],inactive: ≤ -0.038 and inactive: ≤ 0
C=C1c2cccc(O)c2C(O)=C2C(=O)[C@]3(O)C(O)=C(C(N)=O)C(=O)[C@@H](N(C)C)[C@@H]3[C@@H](O)[C@H]12 [Methacycline HCl],scaled lipid accumulation score,[1],inactive: ≤ 0
same,scaled lipid accumulation score,[2],inactive: ≤ 0
C1[C@@H](N(C)[C@@H]2C1)C[C@@H](OC(c3ccccc3)c4ccccc4)C2.CS(O)(=O)=O (stereo partly specified) [Benztropine mesylate],scaled lipid accumulation score,[2],active: 0.873
O=C(O)c1cc(/N=N/c2ccc(S(=O)(=O)Nc3ccccn3)cc2)ccc1O [Sulfasalazine],scaled lipid accumulation score,,inactive: ≤ 0
same,scaled lipid accumulation score,[1],inactive: ≤ 0
same,scaled lipid accumulation score,library stock concentration: 5 mM,inactive: ≤ 0
same,scaled lipid accumulation score,[2],inactive: ≤ 0
O=C(O)c1cc(/N=N/c2ccc(S(=O)(=O)Nc3ccccn3)cc2)ccc1O,scaled lipid accumulation score,[2],inactive: 0.052
CCCCCCCC/C=C/CCCCCCCC(=O)O [Elaidic Acid],scaled lipid accumulation score,[6],inactive: ≤ 0
COc1cc(/C=C/c2ccc(Cl)cc2)cc(OC)c1,scaled lipid accumulation score,[6],inactive: ≤ 0
Nc1ncnc2c1ncn2C1OC(COP(=O)(O)O)C(O)C1O (stereo unspecified) [Adenosine 5'-monophosphate monohydrate],scaled lipid accumulation score,,inactive: 0.109
COc1cc2ncnc(-n3nc(-c4ccccn4)nc3N)c2cc1OC,scaled lipid accumulation score,[3],inactive: ≤ 0
same,scaled lipid accumulation score,[4],inactive: 0.052
same,scaled lipid accumulation score,[5],inactive: 0.101
same,scaled lipid accumulation score,[2],inactive: 0.046
CCN(CC)CCOc1ccc2c(c1)C(=O)c1cc(OCCN(CC)CC)ccc1-2 [Tilorone],scaled lipid accumulation score,[2],active: 0.879
CCOC(=O)c1cnc2c(cnn2CC)c1NN=C(C)C [Etazolate hydrochloride],scaled lipid accumulation score,[2],inactive: ≤ -0.07 and inactive: ≤ 0
CCOC(=O)c1cnc2c(cnn2CC)c1NN=C(C)C [Etazolate],scaled lipid accumulation score,library stock concentration: 6.9 mM,inactive: ≤ 0
CCOC(=O)[C@H](CCc1ccccc1)N[C@@H](C)C(=O)N1C(=O)N(C)C[C@H]1C(=O)O [Imidapril HCl],scaled lipid accumulation score,[1],inactive: ≤ 0
same,scaled lipid accumulation score,[2],inactive: ≤ 0
C[C@@H]1C[C@H]2[C@@H]3CCC4=CC(=O)C=C[C@]4(C)[C@@]3(Cl)[C@@H](O)C[C@]2(C)[C@@]1(OC(=O)c1ccco1)C(=O)CCl [Mometasone furoate],scaled lipid accumulation score,,inactive: 0.136
same,scaled lipid accumulation score,[1],inactive: 0.086
same,scaled lipid accumulation score,[2],inactive: 0.519
CCC1(O)CC2CN(CCc3c([nH]c4ccccc34)[C@@](C(=O)OC)(c3cc4c(cc3OC)N(C)C3[C@]45CCN4CC=C[C@@](CC)([C@@H](OC(C)=O)[C@]3(O)C(=O)OC)[C@H]45)C2)C1.O=S(=O)(O)O (stereo partly specified) [Vinblastine sulfate salt],scaled lipid accumulation score,[2],active: 0.877
CCOc1ccc2nc(S(N)(=O)=O)sc2c1 [Ethoxzolamide],scaled lipid accumulation score,library stock concentration: 7.7 mM,inactive: ≤ 0
c1coc(CNc2ncnc3[nH]cnc23)c1 [Kinetin],scaled lipid accumulation score,[1],inactive: ≤ 0
same,scaled lipid accumulation score,[2],inactive: ≤ 0
C[C@]12CCC3=C4CCC(=O)C=C4CC[C@H]3[C@@H]1CC[C@@]2(O)CC#N [Dienogest],scaled lipid accumulation score,[1],inactive: ≤ 0
same,scaled lipid accumulation score,[2],inactive: ≤ 0
CN1CCN(CCCN2c3ccccc3Sc3ccc(C(F)(F)F)cc32)CC1.Cl.Cl [Trifluoperazine],scaled lipid accumulation score,library stock concentration: 10.4 mM,active: 0.892
CCCCc1ccc2[nH]c(NC(=O)OC)nc2c1 [Parbendazole],scaled lipid accumulation score,,inactive: ≤ 0
COc1cc2ncnc(Nc3cccc(Cl)c3)c2cc1OC,scaled lipid accumulation score,[3],inactive: ≤ -0.016
same,scaled lipid accumulation score,[4],inactive: ≤ -0.016
same,scaled lipid accumulation score,[5],inactive: ≤ -0.016
same,scaled lipid accumulation score,[1],inactive: ≤ 0
same,scaled lipid accumulation score,[2],inactive: 0.749
same,scaled lipid accumulation score,library stock concentration: 14.2 mM,inactive: 0.452
COc1cc2ncnc(Nc3cccc(Cl)c3)c2cc1OC [AG-1478 (Tyrphostin AG-1478)],scaled lipid accumulation score,[1],inactive: ≤ 0
NC(=O)Nc1cc(-c2cccc(F)c2)sc1C(=O)N[C@H]1CCCNC1,scaled lipid accumulation score,[1],active: 0.879
O=c1oc2cc(O)ccc2s1 [Tioxolone],scaled lipid accumulation score,[1],inactive: ≤ 0
same,scaled lipid accumulation score,[2],inactive: ≤ 0 and inactive: ≤ -0.027
Nc1ccccc1NC(=O)c1ccc(CNc2nccc(-c3cccnc3)n2)cc1 [Mocetinostat (MGCD0103)],scaled lipid accumulation score,[1],active: 0.974
CC1/C=C/C=C/C=C/C=C/C=C/C=C/C=C/C(OC2O[C@H](C)[C@@H](O)[C@H](N)[C@@H]2O)CC(O)C(C(=O)O)C(O)CC(=O)CC(O)CC(O)CC(O)CC(=O)CCCC(=O)CC(=O)OC1C(C)CC(C)C(O)CC(=O)c1ccc(N)cc1 (stereo partly specified),scaled lipid accumulation score,[2],inactive: ≤ 0
O=C1C(Cl)=C(NCCN2CCOCC2)C(=O)c2ncccc21,scaled lipid accumulation score,[2],active: 1.04
CC(C)=CCC/C(C)=C/CC/C(C)=C/CC[C@]1(C)CCc2cc(O)c(C)c(C)c2O1 [.gamma.-Tocotrienol],scaled lipid accumulation score,[6],inactive: ≤ 0
CCCCC/C=C\C/C=C\C/C=C\C/C=C\CCCC(=O)O[C@@H](CO)COCCCCCCCCCCCCCCCC [1-Hexadecyl-2-arachidonoyl-glycerol],scaled lipid accumulation score,[6],inactive: 0.044
CC=CC1=C(C(=O)O)N2C(=O)[C@@H](NC(=O)[C@H](N)c3ccc(O)cc3)[C@H]2SC1 [Cefprozil],scaled lipid accumulation score,library stock concentration: 5.1 mM,inactive: ≤ 0
same,scaled lipid accumulation score,[2],inactive: ≤ 0
Nc1nc(OCC2CCCCC2)c2[nH]cnc2n1,scaled lipid accumulation score,[2],inactive: ≤ -0.055
CCn1c(-c2nonc2N)nc2c(C#CC(C)(C)O)ncc(OC[C@H]3CCCNC3)c21,scaled lipid accumulation score,[3],inactive: ≤ -0.008
same,scaled lipid accumulation score,[4],inactive: ≤ -0.009 and inactive: ≤ -0.005
same,scaled lipid accumulation score,[5],inactive: ≤ -0.009 and inactive: ≤ -0.005
same,scaled lipid accumulation score,[1],inactive: 0.355
same,scaled lipid accumulation score,[2],inactive: 0.482 and inactive: 0.613 and inactive: ≤ -0.005
NC(=O)CC[C@H](N)C(=O)O,scaled lipid accumulation score,[2],inactive: 0.123
NC(=O)CC[C@H](N)C(=O)O [L-Glutamine],scaled lipid accumulation score,[2],inactive: ≤ -0.07
